We go through 195 variants from a collection of fitness landscapes (doi:10.1016/j.celrep.2020.107928).

In all, about 81,000 sequences were measured (“one-hybrid fitness for binding NBS DNA”: median about -0.1, highest 2% from about 0.36 on). The list shows a part of the results.

Sequences and labels used below:
B1: Caulobacter ParB omega fusion; a variant is named by its letters at X, in order, B8GW30 (parent)
chain: MESVVVGEPGMSEGRRGLGRGLSALLGEVDAAPAQAPGEQLGGSREAPIEILQRNPDQPRRTFREEDLEDLSNSIREKGVLQPILVRPSPDTAGEYQIVAGERAWRAAQRAGLKTVPIMVRELDDLAVLEIGIIENVQRADLNVLEEALSYKVLMEKFERTQENIAQTIGKSXSHVANXMRLLXLPDEVQSYLVSGELTAXHARAIAAAADPVALAKQIIEGGLSVRETEALARKAPNLSAGKSKGGRPPRVKDTDTQALESDLSSVLGLDVSIDHRGSTGTLTITYATLEQLDDLCNRLTRGI

The experiment covers variants of B1. Description: one-hybrid fitness for binding NBS DNA (the Noc-binding site; scaled: cognate 1, non-cognate 0); higher = stronger binding. The following applies: with NBS DNA site. In outline:
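Pre- and post-selection plasmids were Illumina-sequenced, three replicate libraries were pooled, and any variant with under 10 reads was removed. The libraries were Caulobacter ParB with four specificity codons randomised, selected in E. coli USO through a HIS3 reporter whose site is 19 bp from the promoter. Cells grew 48 hours at 37°C on M9 without histidine, with 0.1 mM IPTG and 5 mM 3-AT. Fitness is the log change in variant-to-wild-type read ratio, rescaled against cognate and non-cognate.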
As to GYRT, the “one-hybrid fitness for binding NBS DNA” value was at most 0.2.

On to TNVG, for which the “one-hybrid fitness for binding NBS DNA” value is at most 0.2. The value for YNSL was at most 0.2; that for THWS was at most 0.2. The value for RTFV was at most 0.2; that for THFG was at most 0.2; that for HAQW was at most 0.2.

Regarding AFRG, the “one-hybrid fitness for binding NBS DNA” value is at most 0.2. For AKCD the value was at most 0.2. The value for FALR was at most 0.2; that for MFRR was at most 0.2. With SETG, the “one-hybrid fitness for binding NBS DNA” value is at most 0.2. Regarding TEPH, the “one-hybrid fitness for binding NBS DNA” value is at most 0.2. For SMQR the value was at most 0.2; for CTVS, at most 0.2; for TWQG, at most 0.2.

Consider NWPG, for which the “one-hybrid fitness for binding NBS DNA” value is at most 0.2. As for PYAK, the “one-hybrid fitness for binding NBS DNA” value was at most 0.2. With AVPR, the “one-hybrid fitness for binding NBS DNA” value is at most 0.2. Turning to PMMT, the “one-hybrid fitness for binding NBS DNA” value was at most 0.2. Regarding NPGC, the “one-hybrid fitness for binding NBS DNA” value is at most 0.2. For AARP the value was at most 0.2. For VQPT the value was at most 0.2; for FICR, at most 0.2; for NDQT, at most 0.2. In the case of TYAC, the “one-hybrid fitness for binding NBS DNA” value is at most 0.2. As for LLGS, the “one-hybrid fitness for binding NBS DNA” value was at most 0.2. Turning to SENV, the “one-hybrid fitness for binding NBS DNA” value was at most 0.2. As for SDWM, the “one-hybrid fitness for binding NBS DNA” value was at most 0.2. The value for MYRF was at most 0.2; that for HYSG was at most 0.2. On to VNLE, for which the “one-hybrid fitness for binding NBS DNA” value is at most 0.2. For LLWK the value was at most 0.2; for DTHA, at most 0.2; for VMNA, at most 0.2. For LLMY the value was at most 0.2; for EGQC, at most 0.2. ACRN: the “one-hybrid fitness for binding NBS DNA” value was at most 0.2. For RAQR the value was 0.43; for QTCG, at most 0.2. Turning to LKIC, the “one-hybrid fitness for binding NBS DNA” value is at most 0.2.

On to PRQT, for which the “one-hybrid fitness for binding NBS DNA” value is at most 0.2. The value for YCYF was at most 0.2.

For the variant QSED, the “one-hybrid fitness for binding NBS DNA” value was at most 0.2.

KDTC: the “one-hybrid fitness for binding NBS DNA” value was at most 0.2. For TPSC the value was at most 0.2; for NGGV, at most 0.2; for INLG, at most 0.2. For IKEV the value was at most 0.2; for TFYF, at most 0.2; for MHIY, at most 0.2. Take CTAF: the “one-hybrid fitness for binding NBS DNA” value is at most 0.2. The value for ILVY was at most 0.2. With KLVV, the “one-hybrid fitness for binding NBS DNA” value is at most 0.2. For the variant NHFR, the “one-hybrid fitness for binding NBS DNA” value was at most 0.2. As to CRSG, the “one-hybrid fitness for binding NBS DNA” value was at most 0.2. As to DLMH, the “one-hybrid fitness for binding NBS DNA” value was at most 0.2.

Take TCYV: the “one-hybrid fitness for binding NBS DNA” value was at most 0.2.

For the variant AVRL, the “one-hybrid fitness for binding NBS DNA” value is at most 0.2. The value for AYVC was at most 0.2. Take HGQT: the “one-hybrid fitness for binding NBS DNA” value is at most 0.2.

Consider SSFE, for which the “one-hybrid fitness for binding NBS DNA” value is at most 0.2.

Consider RPWS, for which the “one-hybrid fitness for binding NBS DNA” value was at most 0.2.

Consider WANC, for which the “one-hybrid fitness for binding NBS DNA” value was at most 0.2. As to KARE, the “one-hybrid fitness for binding NBS DNA” value is at most 0.2. For KTTE the value was at most 0.2; for TNQE, at most 0.2. Turning to PRQY, the “one-hybrid fitness for binding NBS DNA” value is at most 0.2. For VTQC the value was at most 0.2; for GASD, at most 0.2; for NYHY, at most 0.2.

As to QPWC, the “one-hybrid fitness for binding NBS DNA” value is at most 0.2. Turning to VHST, the “one-hybrid fitness for binding NBS DNA” value was at most 0.2. For the variant LSEG, the “one-hybrid fitness for binding NBS DNA” value was at most 0.2. For MCAT the value was at most 0.2; for YLIL, at most 0.2; for RFPN, at most 0.2. In the case of ISWC, the “one-hybrid fitness for binding NBS DNA” value was at most 0.2.

As for TSNR, the “one-hybrid fitness for binding NBS DNA” value is at most 0.2. Turning to KRKL, the “one-hybrid fitness for binding NBS DNA” value is at most 0.2.

TIHS: the “one-hybrid fitness for binding NBS DNA” value is at most 0.2. For APSK the value was at most 0.2; for QANT, 0.462; for GRFE, at most 0.2. For IHLR, the “one-hybrid fitness for binding NBS DNA” value was at most 0.2.

Consider PGLY, for which the “one-hybrid fitness for binding NBS DNA” value is at most 0.2.

With QRDL, the “one-hybrid fitness for binding NBS DNA” value is at most 0.2. The value for EHRN was at most 0.2; that for FSSC was at most 0.2; that for KCGN was at most 0.2.

Consider TPTC, for which the “one-hybrid fitness for binding NBS DNA” value is at most 0.2. For the variant CEVR, the “one-hybrid fitness for binding NBS DNA” value is at most 0.2. The value for DPTR was at most 0.2; that for RTKL was at most 0.2; that for KMAC was at most 0.2.

In the case of AKQT, the “one-hybrid fitness for binding NBS DNA” value is at most 0.2. For SAAE, the “one-hybrid fitness for binding NBS DNA” value is at most 0.2. For VIPW the value was at most 0.2. In the case of AMHV, the “one-hybrid fitness for binding NBS DNA” value was at most 0.2.

As to RPYS, the “one-hybrid fitness for binding NBS DNA” value is at most 0.2.

Regarding EKYG, the “one-hybrid fitness for binding NBS DNA” value is at most 0.2. For IYES the value was at most 0.2; for DSYR, at most 0.2. The value for PIMM was at most 0.2.

As to VSIG, the “one-hybrid fitness for binding NBS DNA” value was at most 0.2.

Turning to KSAW, the “one-hybrid fitness for binding NBS DNA” value was at most 0.2. As for WRRC, the “one-hybrid fitness for binding NBS DNA” value was at most 0.2.

Consider WRYG, for which the “one-hybrid fitness for binding NBS DNA” value is at most 0.2. Turning to SKSK, the “one-hybrid fitness for binding NBS DNA” value was at most 0.2. As for VKGM, the “one-hybrid fitness for binding NBS DNA” value was at most 0.2.

Regarding MCTT, the “one-hybrid fitness for binding NBS DNA” value is at most 0.2. As for GTLT, the “one-hybrid fitness for binding NBS DNA” value was at most 0.2. For the variant NTTY, the “one-hybrid fitness for binding NBS DNA” value is at most 0.2. The value for DHHC was at most 0.2. The value for VHHS was at most 0.2. The value for YVGG was at most 0.2; that for THSP was at most 0.2; that for FRHS was at most 0.2. Take QLKL: the “one-hybrid fitness for binding NBS DNA” value is at most 0.2. The value for IDGG was at most 0.2; that for ELMC was at most 0.2; that for VTGF was at most 0.2.

For WLVC, the “one-hybrid fitness for binding NBS DNA” value is at most 0.2. For RIST the value was 0.398; for SLCS, at most 0.2; for VGYK, at most 0.2. As to SHSN, the “one-hybrid fitness for binding NBS DNA” value was at most 0.2. The value for AEML was at most 0.2; that for LRES was at most 0.2. Consider WYIT, for which the “one-hybrid fitness for binding NBS DNA” value is at most 0.2. With FGKV, the “one-hybrid fitness for binding NBS DNA” value is at most 0.2. Turning to YIWR, the “one-hybrid fitness for binding NBS DNA” value is at most 0.2. The value for RMES was at most 0.2; that for QVIT was at most 0.2; that for CRAT was at most 0.2. For EIRF the value was at most 0.2; for IMVG, at most 0.2. As for MSNA, the “one-hybrid fitness for binding NBS DNA” value is at most 0.2. Consider QPVD, for which the “one-hybrid fitness for binding NBS DNA” value is at most 0.2. As to VGLI, the “one-hybrid fitness for binding NBS DNA” value was at most 0.2. In the case of LRWY, the “one-hybrid fitness for binding NBS DNA” value was at most 0.2.

As to LSSD, the “one-hybrid fitness for binding NBS DNA” value was at most 0.2.

With TMCG, the “one-hybrid fitness for binding NBS DNA” value is at most 0.2. In the case of FRLG, the “one-hybrid fitness for binding NBS DNA” value is at most 0.2.

In the case of IDQR, the “one-hybrid fitness for binding NBS DNA” value is at most 0.2. On to LLVL, for which the “one-hybrid fitness for binding NBS DNA” value was at most 0.2. The value for VMES was at most 0.2; that for VPEG was at most 0.2; that for GSLF was at most 0.2. In the case of PTYQ, the “one-hybrid fitness for binding NBS DNA” value is at most 0.2.

Take TSGI: the “one-hybrid fitness for binding NBS DNA” value is at most 0.2. The value for IANN was at most 0.2; that for VMSC was at most 0.2. For IHSC the value was at most 0.2. For DCWS the value was at most 0.2; for PIPD, at most 0.2. In the case of DIAV, the “one-hybrid fitness for binding NBS DNA” value was at most 0.2. The value for MRHF was at most 0.2; that for KDLS was at most 0.2. Take HPGQ: the “one-hybrid fitness for binding NBS DNA” value was at most 0.2.

For the variant KFLG, the “one-hybrid fitness for binding NBS DNA” value was at most 0.2. For IMER the value was at most 0.2; for GDIY, at most 0.2; for PLAV, at most 0.2. The value for GQYL was at most 0.2. With MAAI, the “one-hybrid fitness for binding NBS DNA” value was at most 0.2. For QSFV the value was at most 0.2; for CCGT, at most 0.2; for TGCD, at most 0.2. Regarding EWLR, the “one-hybrid fitness for binding NBS DNA” value is at most 0.2. The value for KKCN was at most 0.2; that for FVWC was at most 0.2. Turning to PNAD, the “one-hybrid fitness for binding NBS DNA” value was at most 0.2.

Regarding THAS, the “one-hybrid fitness for binding NBS DNA” value was at most 0.2. The value for TTVI was at most 0.2; that for CCVE was at most 0.2; that for MICR was at most 0.2. In the case of HSDM, the “one-hybrid fitness for binding NBS DNA” value is at most 0.2. In the case of THHC, the “one-hybrid fitness for binding NBS DNA” value was at most 0.2. On to LDQT, for which the “one-hybrid fitness for binding NBS DNA” value is at most 0.2. The value for MTHS was at most 0.2; that for PWAC was at most 0.2; that for WDNS was at most 0.2. For the variant WSAS, the “one-hybrid fitness for binding NBS DNA” value was at most 0.2. The value for YPIL was at most 0.2; that for LQGG was at most 0.2. For KFAG, the “one-hybrid fitness for binding NBS DNA” value was at most 0.2. For ADFT the value was at most 0.2; for ADSC, at most 0.2. On to PASR, for which the “one-hybrid fitness for binding NBS DNA” value was at most 0.2. For GPTG the value was at most 0.2; for SPWA, at most 0.2; for CANS, at most 0.2. The value for GREE was at most 0.2; that for WTYR was at most 0.2.
